Tested on: yeast infections of the vagina
Conditions: suppository every 24 hours; third group

Which yeast assay does the source give for `Clc1ccccc1C(c1ccccc1)(c1ccccc1)n1ccnc1` [clotrimazole] here?
Its yeast assay is “negative”.

Reference: patent US5364879A, “Medical uses of trioxolane and diperoxide compounds” (Cliveden Ltd., priority 1994, dated 1994)
